The results in this text go back to the supplement of paper PMC10126150.

The data set concerns ATP. Kind of data set: switch fluorescence ratio, 500 uM ATP over buffer (Cy3 cluster intensity, sum of 5 cycles each) (fold (ratio)); higher = stronger signal-on switching upon ATP binding; sequences stand for … in TCGTCGGCAGCGTCAGATGTGTATAAGAGACAGTTTTTTTTTTTTTTTTTTTTTTTTT…TC. Particulars: aptamer strand: ATP DNA aptamer (quencher-CACCTGGGGGAGTATTGCGGAGGAAGG + anchor), 100 nM annealed; ATP concentration: 500 uM; one replicate. Summed up:
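Cy3-labelled switching-strand clusters on a modified Illumina MiSeq flow-cell were annealed to 100 nM quencher-labelled ATP aptamer and imaged first in selection buffer, then after 15 min with 500 uM ATP at 22 °C. NaOH stripping and re-annealing separated each of five buffer/ATP cycles, and clusters outside 100-1000 RFU were excluded. The fluorescence ratio sums target-cycle Cy3 intensity over buffer-cycle Cy3 intensity per cluster and averages it per switch-domain sequence.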

Sequences with one replicate were seen in a single cluster, so their values are uncertain.
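Note: ATP exposure 15 min at 22 °C before imaging.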

CGCTTGAAAG: the switch fluorescence ratio came out at 0.989. On to CAATCCATGG, for which the switch fluorescence ratio came out at 0.999. For CGTGCCGTAT the value was 0.98; for GGGAAAGTAG, 1. For TAGCCCCGAG the value was 1.03; for GCCATGGGAT, 1.02. For TTAGGCTGGT, the switch fluorescence ratio came out at 1.03. With AATATAGTGC, the switch fluorescence ratio amounted to 1.09.

Take ATTTTCGAGA: the switch fluorescence ratio is 0.977.

CGAAGTAGGC: the switch fluorescence ratio came to 1.38.

TGTCACTAAC: the switch fluorescence ratio worked out at 1.14. GTTCGCTTTA: the switch fluorescence ratio amounted to 1.02.

For the sequence TCGTTACCAA, the switch fluorescence ratio is 0.993.

As for TATGCGCTCG, the switch fluorescence ratio was determined as 0.968. For AACTGATGCA the value was 0.951.

CGATGCACGT: the switch fluorescence ratio came out at 1.08. Consider ATTTAGAGGG, for which the switch fluorescence ratio amounted to 0.987. Turning to CGTTAGTTGG, the switch fluorescence ratio is 0.987. For GTTCGATGCA, the switch fluorescence ratio stood at 1.03.

In the case of GCATTTATTG, the switch fluorescence ratio was 0.969. For TTAACGGCCC the value was 1.91.

Regarding AACGGTATGC, the switch fluorescence ratio worked out at 1.08. For GCTAGGGACC the value was 1.05; for CTCTGGGGAC, 1.65; for TTGAGAACCC, 0.998. With ATAGTTCGAA, the switch fluorescence ratio amounted to 1.03. In the case of CTGGTGTAT, the switch fluorescence ratio is 1.

Take CCTTAGTCCT: the switch fluorescence ratio worked out at 1.23.

On to AGAAAGTGAG, for which the switch fluorescence ratio came out at 1.05. GGGTAACCCA: the switch fluorescence ratio came to 1.01.

As to TTCACTCTGC, the switch fluorescence ratio is 1.45. In the case of GGGGTGGCGG, the switch fluorescence ratio was 0.939. For AATGATTCAT the value was 1; for AGACAGCAAT, 2.73.

As for GTGTGGTAAT, the switch fluorescence ratio was 1.01.

Consider TCTTTAGTGC, for which the switch fluorescence ratio stood at 1.06. Regarding CAAACAAATA, the switch fluorescence ratio is 1.02. For AAGCTTTCTG the value was 1.46; for CCGTCTGAGG, 1.01.

Turning to TCGTCTAGA, the switch fluorescence ratio came to 1.01. With TAAAGGGGTA, the switch fluorescence ratio came out at 1.01.

As to TTATGTAGTT, the switch fluorescence ratio amounted to 0.992.

With GATTCACCTA, the switch fluorescence ratio is 1. As for AACCAGGATC, the switch fluorescence ratio amounted to 1.

Take GGGCTTCTAA: the switch fluorescence ratio is 0.966.

On to AATTATCTAT, for which the switch fluorescence ratio is 1.03. For CGTGACTTTC the value was 1.04; for ATTATCGCC, 1.06. For AGGAGATTGA the value was 0.955; for CAGATCCAAG, 0.975; for TGCGCTACTT, 1.16. For CAATGTATCG the value was 0.962. In the case of TCTTGGGCGC, the switch fluorescence ratio stood at 1.01. Take GCGTGATAT: the switch fluorescence ratio is 1.17. For GACATCGCGG the value was 1.01; for CAGAGCCCTT, 0.988; for ATTAAATAT, 1.06. Turning to TTATTCCCTA, the switch fluorescence ratio was 1. For CAAGCAGGTT the value was 1. For the sequence CAGGCCATA, the switch fluorescence ratio was 1.01.

For the sequence GCGCAGCATG, the switch fluorescence ratio came to 1.02. With GAGGGGGAAT, the switch fluorescence ratio stood at 0.986. On to TCCGCCTTCA, for which the switch fluorescence ratio is 1.3. Consider TTTGCAATGA, for which the switch fluorescence ratio was 3.91. For CATTGGCTAT the value was 1.05; for GAGCAAAGAG, 1.36; for CATCCGTGTA, 3.49. Regarding CAGCCTGGGA, the switch fluorescence ratio turned out to be 0.973. Regarding AAATACAATG, the switch fluorescence ratio was found to be 0.995. For AAGCCTATAT the value was 0.998; for AAAAGCGCTT, 1.02. For CCGGGAAACC the value was 1.05; for TTTATTGGCC, 0.998; for TTGAGACGTG, 0.971. As for GATTCGTCGA, the switch fluorescence ratio was found to be 0.957. For TCCGTGGCAG the value was 1.39; for AGGCCGTGT, 0.95; for GGAGTGTGTA, 1.02.

For the sequence GACGGTCCGT, the switch fluorescence ratio is 1. Take CTTCGGTGT: the switch fluorescence ratio is 0.993. On to AAAGTCAGGA, for which the switch fluorescence ratio amounted to 0.959. CATTGTCAGC: the switch fluorescence ratio came to 0.988. As to TTACTGTGTC, the switch fluorescence ratio is 0.98. Take ACCTAAAACG: the switch fluorescence ratio amounted to 1.05. For TCGGACGGTG the value was 1.03; for AGTCTGGTAT, 0.99.

On to CGTTACGAAG, for which the switch fluorescence ratio was determined as 1.02.

For GGGATTCGGC, the switch fluorescence ratio was determined as 1.01.

With TGGAGGAGTC, the switch fluorescence ratio is 1.01. For GCTGGTAAAT the value was 0.943; for CGTGTTACTT, 1.03; for GAGGCCTCA, 1.02. As for GTCCTAGGGG, the switch fluorescence ratio was found to be 1.09. For TCGTTCAGAG the value was 1; for ATTCATACAA, 0.995.

For TCCAAAGGCT, the switch fluorescence ratio stood at 0.969. For TCGCAGAGGG the value was 0.981; for CTGATGCGGA, 1.08; for TGATGTTTGG, 1.01. For CATTCGGTAA the value was 1.07. For TCGATTAGAG the value was 1.15. Turning to TATACTTATT, the switch fluorescence ratio came to 1.05. For the sequence ACCCGGGGAA, the switch fluorescence ratio was found to be 1.37.

For GTCAGCCATC, the switch fluorescence ratio turned out to be 1.08. As to CAAAAAAATT, the switch fluorescence ratio worked out at 0.974. For CCAGTGACGT the value was 0.948; for CGAAGGGAC, 1.06; for TATCTATCGT, 1.03. Consider AGAGTTTGTT, for which the switch fluorescence ratio worked out at 0.965.

For AAGGTACAGC, the switch fluorescence ratio turned out to be 1.1. Turning to TCGAGGCCTT, the switch fluorescence ratio came to 0.981. For TATTGCGGTA the value was 0.965; for ATTAGATAAG, 1.03; for TACAGGAGTG, 0.956. For GAAGTGTGGA the value was 0.996. For GTCGAGGTG the value was 1.07. Turning to CATCACTTAT, the switch fluorescence ratio was 1.05. For CCCCACGGGA the value was 0.986; for AACTGCGTCC, 1.1; for CAGGGGACTG, 1.11.
